Experimental data taken from publication PMC6919601, “Identification of Plasmodium dipeptidyl aminopeptidase allosteric inhibitors by high throughput screening” (PLoS ONE, 2019).
The whole screen tested about 110,000 compounds, of which about 230 (0.21%) showed an effect of 50% or more. The list shows a part of the results.

The molecules below were run against DPAP1 (Plasmodium falciparum, UniProt Q8IIJ9) (assay: primary screen, percent inhibition; read by cleavage of a fluorogenic dipeptide substrate; higher = more effect of the substance).
Sequence of DPAP1 (Q8IIJ9 whole entry, looked up): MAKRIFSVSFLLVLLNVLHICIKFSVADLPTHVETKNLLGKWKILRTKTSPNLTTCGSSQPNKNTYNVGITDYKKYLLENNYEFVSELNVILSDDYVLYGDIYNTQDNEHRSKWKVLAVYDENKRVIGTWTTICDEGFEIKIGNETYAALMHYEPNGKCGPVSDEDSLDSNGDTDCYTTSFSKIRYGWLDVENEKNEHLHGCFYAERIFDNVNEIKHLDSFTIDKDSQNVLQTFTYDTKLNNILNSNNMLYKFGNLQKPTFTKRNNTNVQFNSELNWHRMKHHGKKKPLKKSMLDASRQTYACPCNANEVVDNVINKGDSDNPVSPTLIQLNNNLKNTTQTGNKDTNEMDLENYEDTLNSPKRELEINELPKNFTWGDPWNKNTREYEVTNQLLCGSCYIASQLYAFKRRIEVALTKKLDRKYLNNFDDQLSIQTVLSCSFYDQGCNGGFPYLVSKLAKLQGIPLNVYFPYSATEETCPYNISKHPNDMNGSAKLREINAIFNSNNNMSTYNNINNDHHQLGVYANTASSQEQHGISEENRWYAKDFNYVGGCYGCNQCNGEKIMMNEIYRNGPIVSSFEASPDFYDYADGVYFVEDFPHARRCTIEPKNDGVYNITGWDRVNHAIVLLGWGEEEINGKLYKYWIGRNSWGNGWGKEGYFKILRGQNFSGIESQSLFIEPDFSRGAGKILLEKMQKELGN
Set-up: species or system P. falciparum D10 trophozoite lysates; single well
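Further: 30 min substrate incubation versus DMSO and 10 µM JCP410 controls.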

| Compound | % Inhibition @ 10 uM |
| --- | --- |
| COc1ccc(CCNC(=O)CN(C)S(=O)(=O)c2ccc(Br)s2)cc1OC | -1.29% |
| CCOC(=O)N1CCC(NC(C)c2cccc3ccccc23)CC1 (stereo not drawn) | 0.472% |
| COc1ccc(OC)c(S(=O)(=O)Nc2cc(OC)c(Cl)cc2OC)c1 | 5.03% |
| O=C(NC1CCCC1)c1ccc(CS(=O)c2ccc(Cl)cc2)o1 (stereo not drawn) | -4.96% |
| CCN(CC)c1ccc(NC(=O)COc2ccc(C)cc2)c(C)c1 | 3.48% |
| COc1cc(Cc2nnc(C(=O)NCCC(C)C)o2)cc(OC)c1OC | 0.454% |
| CCOC(=O)C1=CN(C(C)C)C=C(C(=O)OCC)C1c1ccc(OC)c(Br)c1 | -5.05% |
| Cc1cc(=O)n2nc(N3CCCC(C(=O)NCc4ccccc4Cl)C3)sc2n1 (stereo not drawn) | -2% |
| Cc1ccc2nc(-c3ccc(NC(=O)/C=C\C(=O)O)cc3)sc2c1 | 1.64% |
| Cc1ccc(S(=O)(=O)NCc2ccc(C(=O)N3CCN(c4ccccn4)CC3)cc2)cc1 | -3.35% |
| COc1ccc2[nH]c(C(=O)O)c(CCC(=O)O)c2c1 | 0.0539% |
| COc1ccc(Br)cc1/C=C/C(=O)N1CCN(c2ccc([N+](=O)[O-])cc2Cl)CC1 | 3.24% |
| COc1ccccc1CN(Cc1ccccc1)CC1CCCCC1=O (stereo not drawn) | -0.807% |
| COc1ccccc1-c1c(C)nn2c(SCC(=O)NCCN(C)C)cc(C)nc12 | -7.22% |
| N#Cc1nc(/C=C/c2ccc(F)cc2)oc1N1CCCC1 | 2.54% |
| CC(C)c1ccccc1NC(=O)c1ccncc1 | 2.43% |
| CC(=O)N1CCC(N2CCN(c3ccccc3F)CC2)CC1 | 4.51% |
| CC(C)OCCCNC(=O)c1cc(Sc2ccc(F)cc2)nc2ccccc12 | 4.36% |
| COc1ccc(CNS(=O)(=O)c2ccc3[nH]c4c(c3c2)CCCCC4)cc1 | 2.52% |
| Nc1ncc(Br)cc1S(=O)(=O)NCCC(=O)NCc1ccccn1 | 5.53% |
| CCCC1=NN(C(=O)c2ccccc2)C(O)(C(F)(F)F)C1 (stereo not drawn) | 7.16% |
| COc1ccc(C(=O)NCc2ccc(Cl)c(Cl)c2)cc1 | -1.61% |
| COc1cc(CN2CCN(Cc3ccc4ccccc4c3)CC2)cc2c1OCO2 | -5.3% |
| CC(C)N1CC2=C(OC(N)=C(C#N)C2c2ccc(F)cc2)/C(=C/c2ccc(F)cc2)C1 (stereo not drawn) | -0.759% |
| Cc1ccc(C(=O)O/N=C(\N)c2ccccn2)cc1Cl | -6.86% |
| O=C(O)C#CCN1C(=O)c2ccccc2C1=O | 6.24% |

| Compound | % Inhibition @ 10 uM |
| --- | --- |
| Cc1ccc2oc(=O)c3cc(C(=O)N4CCc5ccccc5C4)sc3c2c1 | -6.23% |
| COc1cc2c(cc1/C=C1/S/C(=N\c3ccccc3)N(Cc3cccnc3)C1=O)OCO2 | -11% |
| COc1ccc(-c2cc(C(=O)NCc3cccnc3)[nH]n2)cc1 | 0.44% |
| CC(C)(C)C(/C=C/c1ccc(Cl)cc1Cl)n1nnnc1CN1CCOCC1 (stereo not drawn) | -1.63% |
| CC(C)C[C@H](N[C@@H](C(=O)NC(C)C)c1ccc(-c2ccc(S(C)(=O)=O)cc2)cc1)C(=O)NCC#N | 0.173% |
| COCCNS(=O)(=O)c1cc(-c2onc(C)c2C)ccc1OC | 5.5% |
| O=C(CCn1cccn1)NC1CCCc2ccccc21 (stereo not drawn) | -3.41% |
| COc1ccc(C2N3CCCN23)cc1Br (stereo not drawn) | -6.67% |
| COC(=O)c1c(NC(=O)Cc2coc3cc(C)cc(C)c23)sc2c1CCCC2 | 4.18% |
| Cc1c(Br)c(C(=O)NC23CC4CC(CC(C4)C2)C3)nn1C | 2.39% |
| N#C/C(=C\c1ccco1)c1nc(-c2ccc(Cl)c(Cl)c2)cs1 | 4.12% |
| CC(C)C(=O)NCCc1nc2ccccc2n1Cc1ccccc1 | 3.24% |
| CCOc1ccc(NC(=O)CSc2nc3ccccc3s2)cc1 | -6.35% |
| CCOC(=O)/C(C#N)=C/c1c(Oc2ccccc2OC)nc2c(C)cccn2c1=O | -5.1% |
| Nc1nonc1C(=O)NCCNCc1cccc(OCc2ccc(Cl)cc2)c1 | 3.36% |
| COc1ccc(/C=C/C2=NC(=C\c3cccc(OC)c3OC)/C(=O)O2)cc1 | 5.79% |
| Cc1nc(O)nc(O)c1CCOc1ccccc1 | 4.19% |
| CCOc1ccc(C=C2C(=O)NC(=S)NC2=O)cc1 | 1.91% |
| CCOc1ccccc1NC(=O)c1ccccc1C | 0.135% |
| c1ccc(C2=C(CN3CCCCC3)C(c3ccccc3)c3ccccc3O2)cc1 (stereo not drawn) | -2.63% |
| CCOc1ccccc1-n1nnc(-c2nc(-c3ccc(OC)cc3)no2)c1N | 1.13% |
| O=C1CCCC2=C1C(c1cccc(O)c1)C1=C(CCCC1=O)O2 | -9.12% |
| C#CCN1C(=O)S/C(=C/c2ccc(OCC(N)=O)c(OC)c2)C1=O | -2.46% |
| N#Cc1c(/N=C/c2ccccc2)sc2c1CCCC2 | 13.2% |
| CCc1nc(N2CCCC2)ncc1C(=O)O | -1.11% |
